Assay results reported in the supplement of paper PMC11417369.
± gives the standard deviation of the averaged measurements. The list shows a part of the results.

What follows are sequences tested on PfAP2-EXP AP2 domain (GST-tagged) (assay: gcPBM binding intensity (ln(normalized median fluorescence intensity)); higher = stronger DNA binding).
How it was run: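 Each value is the highest Masliner-normalised natural-log median intensity across replicate spots of either orientation of a probe. The probes were primer-extended double-stranded 36-bp intergenic genomic sequences on an Agilent 4 × 180k array, alongside negative controls, exposed for 1 h to GST-tagged P. falciparum DNA-binding domains expressed in E. coli. Bound protein was picked up with Alexa488 anti-GST antibody and scanned at 488 nm.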

| Sequence | gcPBM binding intensity (ln) |
| --- | --- |
| TGTATTCATACATGCACACGTACATATTTAAATATA [CACACA_site3926] | 9.05 ± 0.18 |
| TACTACTATCTATATTGTACAAAAGGTGCCTACAAA [XGTACX_site4267] | 8.82 ± 0.26 |
| TATTTCAAAAAAAAAAAAAATAAAAAACAACAACAA [CACACA_negctrl_site893] | 8.54 ± 0.45 |
| AAAAAAAATTATATATGTACTTATTAATCCTTATAT [XGTACX_site1389] | 8.13 ± 0.2 |
| ATTTATATATCGCCCACACACATGTGATTATTTATA [CACACA_site6905] | 9.1 ± 0.42 |
| TTCATTTATTTACTTACACACTTTATATATGTGGTT [CACACA_site4901] | 8.85 ± 0.34 |
| TCTATTCAAAATAAAAGTACTAGCATGTGAATTGTT [XGTACX_site5530] | 8.71 ± 0.42 |
| TACAAGTTTTTAAAGTGTACCAAAAAAAAAGAATAA [XGTACX_site979] | 8.66 ± 0.36 |
| ATATATAAAATATACACACATACTGTTCATTTAAAG [CACACA_site4169] | 8.38 ± 0.42 |
| TTACAACAGAATGGTATTTTTTTATTTTAAAGAAAA [TGCATGCA_negctrl_site230] | 8.04 ± 0.38 |
| ATATGTAAAACTTCAAAAAAATATATTTTATGACGA [GTGCAC_negctrl_site324] | 8.48 ± 0.48 |
| ATCCTACTATGTTATACACACAATTACTTTTTTCTC [CACACA_site3712] | 9.03 ± 0.47 |
| AATATTTATGTGAAGACACACAACTGTTTATTATAT [CACACA_site3447] | 8.51 ± 0.44 |
| TTTTTTCTTTCTTTCAAACACACATTAATTTTATTC [CACACA_site2733] | 8.66 ± 0.49 |
| AAAATTTATATAGGCACACAAATAAATTAATACATA [CACACA_site1418] | 8.59 ± 0.33 |
| AAAAATGAAAGGTGTACACATACAAACATAGAAAGA [CACACA_site5020] | 9.29 ± 0.49 |
| TTTTTTTTTTTTTGGTGTACTTTTTTTAGAACGCAA [XGTACX_site4207] | 8.33 ± 0.3 |
| TGTTCAAATTTATTCGATCTTTATATTTAATAAAAC [CACACA_negctrl_site781] | 8.21 ± 0.4 |
| ATTCTACACCCACATACACACATATATATATATATA [CACACA_site3426] | 10.2 ± 0.26 |
| ATATTAGAAATATGAATAGAAAGAATATATAAGTAT [CACACA_negctrl_site682] | 8.81 ± 0.44 |
| AGATACTTTCCTCAAACACACAAAACTATACAACAA [CACACA_site1474] | 8.71 ± 0.54 |
| GTTAGCTCGTTCGGAGCACACACATATATATATATA [CACACA_site8595] | 10.1 ± 0.45 |

| Sequence | gcPBM binding intensity (ln) |
| --- | --- |
| ATTCAGTTCTATAATACACACATATATTGACATTAT [CACACA_site7309] | 8.71 ± 0.39 |
| ATATTCTTCTAAAGGCGTACATCTACATTTATGAAA [XGTACX_site2145] | 8.84 ± 0.16 |
| AGATACGATTATATGCGTTCAATATACCAAATAATT [TGCATGCA_negctrl_site501] | 8.49 ± 0.23 |
| CTTTGTGTTAAAAGTAGTACACCAAAAATATGACTT [XGTACX_site622] | 8.7 ± 0.42 |
| GAATAAATATTAAATGTGCACTTGAATAGATGTAAA | 9.07 ± 0.014 |
| CACGCGCCCGGACACACACACACACCCATATATATA [CACACA_site5251] | 8.92 ± 0.37 |
| TTTTTCATCATATGTTGTACAATGTGTAGATATATT [XGTACX_site3195] | 8.69 ± 0.2 |
| AAGAGAAATTATAACATGTGAAATGTATTATATATA [TGCATGCA_negctrl_site254] | 8.43 ± 0.44 |
| ATTTATATATAATATACACACATATAATCCACATAT [CACACA_site699] | 8.54 ± 0.28 |
| TAAGTATAATATTGATGTACATATAATAACTTGTAT [XGTACX_site417] | 8.43 ± 0.33 |
| TATCTCTTATTTTATTGTACTTAACTATGCTATAAT [XGTACX_site4904] | 8.85 ± 0.4 |
| AAAAATAAAAAAATGACACACATATATATATATATA [CACACA_site2307] | 10 ± 0.53 |
| ATTCAAATTGTAGAAACACACAAAAACTTAACATAT [CACACA_site2617] | 8.7 ± 0.44 |
| TAGTTAACAAATAATGCACACAAATGGATAAAATTA [CACACA_site9240] | 8.9 ± 0.28 |
| CATATGATATGTTATACACACACGTATATATGAATT [CACACA_site3446] | 8.54 ± 0.45 |
| AAGGGAAAATTAAGGTTGCACTAAAAATATATCTTT [GTGCAC_site9608] | 8.35 ± 0.33 |
| ATGAACATACAATATACACACATATATATTTATATT [CACACA_site4609] | 8.55 ± 0.52 |
| TACTATAACGCACATACACACAAAAAAAAAAAAAAA [CACACA_site8073] | 8.76 ± 0.23 |
| TATATATATATTTTTGCATGTAATTTTTATGAGGAC [TGCATGCA_site884] | 9.79 ± 0.29 |
| TTATACATGAAATATTGTACACATATATATATATAT [XGTACX_site4378] | 10.1 ± 0.32 |
| ATATGGTGATATAGGTGTACATTTTGATGCTTATTT [XGTACX_site4283] | 8.65 ± 0.47 |
| AATTAGATTATGCACACACACTTAAAAATAATAAAT [CACACA_site7015] | 8.72 ± 0.32 |

| Sequence | gcPBM binding intensity (ln) |
| --- | --- |
| TTTTTTTTTTTCTTAGTGCGCGTGAAAAATATAAAA | 8.43 ± 0.26 |
| TTACTCAAACAAACAAAAAAAAAAAAAAAAAAAAAA [TGCATGCA_negctrl_site457] | 7.88 ± 0.26 |
| ATATATAGAATGTGTACACACATATGTATTTATATA [CACACA_site810] | 8.55 ± 0.14 |
| ATTTTTTATGGACAAAAGACCTCTGATGTAAATATA [CACACA_negctrl_site1081] | 8.3 ± 0.39 |
| GATAAATGTATATATGCATGCACATATATTTATACA [TGCATGCA_site748] | 9.785 ± 0.021 |
| TATTTGTAATATTATACACACATTATATATTACAAA [CACACA_site5804] | 8.54 ± 0.37 |
| TATTTTGTATATAAATGTACAAGTATATATTTTTTC [XGTACX_site7855] | 8.33 ± 0.31 |
| ATTTAAATAACGTATGTATATACATATATATATATA [TGCATGCA_negctrl_site207] | 10 ± 0.22 |
| CGTAGCCACACTAACACACACAAATATACACAATCA [CACACA_site7379] | 8.52 ± 0.61 |
| ATATATTATATATATATATATATATATTATTATTGT [TGCATGCA_negctrl_site286] | 8.81 ± 0.2 |
| TATGAATATTTGTATACATGCATATAGAAATCATAT [TGCATGCA_site533] | 8.76 ± 0.36 |
| GCTTTAATCTGAAAGTGTACAGATAATATATTTATA [XGTACX_site2462] | 8.22 ± 0.34 |
| TGCATTATTTACAAGGTGCGTTACAAATGTGTAACA [GTGCAC_site9442] | 8.71 ± 0.18 |
| TTTTTTTTTTTTTTTTTTTTTTTTTCATATTAATAT [GTGCAC_negctrl_site351] | 8.15 ± 0.47 |
| TTGGCATACAGACACACACACACACCCCCACATATA [CACACA_site590] | 9.43 ± 0.61 |
| ATTGATACATCCAATACACACTACATATTATGATGT [CACACA_site6965] | 8.56 ± 0.36 |
| AATTTATTAAAAAAATGTACTTATTTTTTTGTATAA [XGTACX_site5844] | 8.25 ± 0.34 |
| ACATATTGTAGATATTGTACATATTGTGTATATATT [XGTACX_site7620] | 8.31 ± 0.34 |
| AATATGGAATGAAATAACAATCGGGAGTATATTACC [CACACA_negctrl_site93] | 8.9 ± 0.35 |
| TATATATATGTTCTTACACACACGAATATATATATG [CACACA_site3304] | 8.71 ± 0.29 |
| CTTTCTCTCAAAATGACATGCAATTTGTTTCTTTTT [TGCATGCA_site169] | 8.94 ± 0.18 |
| ATGCGTTTAGCAAAAAGTACATATATATATAATATT [XGTACX_site1928] | 8.47 ± 0.35 |

| Sequence | gcPBM binding intensity (ln) |
| --- | --- |
| ATATATATATATATTTGTACTTAATTGATTTTACTT [XGTACX_site2663] | 10.11 ± 0.085 |
| ATTTTTTCTAGACATGCATGTGAAATTTACTTTTTT [TGCATGCA_site305] | 9.35 ± 0.19 |
| TTGAAATACTTTATTTGTACATATAGCAAAGTGTAT [XGTACX_site8782] | 8.48 ± 0.31 |
| ATTATTGATTTATAAACACACACTCGAAGATGTTTA [CACACA_site8294] | 8.4 ± 0.37 |
| TTTTTTTTTTTTTTTACACACTTTATTCAAACAACT [CACACA_site4104] | 8.34 ± 0.54 |
| ATTTTTTTTTAATGCAATATATTTTGAAAATTTTAT [CACACA_negctrl_site753] | 8.54 ± 0.35 |
| TAATATCTTGAGTCATCACACATTGATTAATGAATC [CACACA_site5735] | 8.2 ± 0.38 |
| TGAATACAGATATTCACACAAATAGTTTTGATATAT [CACACA_site5527] | 8.14 ± 0.52 |
| AAAAAAATATATAATAGTACATATATAGGAATATAT [XGTACX_site4591] | 8.41 ± 0.34 |
| AGTGGAAATTTTATTTGTACATAAATATTTACATAC [XGTACX_site633] | 8.39 ± 0.27 |
| CTTTTTTTTTTTTTTGCACACACATATATAAATATA [CACACA_site3950] | 8.76 ± 0.41 |
| AGATCATAATATTATACACACATTATATATCTGTAA [CACACA_site4925] | 8.54 ± 0.42 |
| TTTTGAATATATTAAATAAATTAAAAATCTACAAAC [GTGCAC_negctrl_site622] | 8.26 ± 0.36 |
| TAATAAATTCAAAACATAAAAAGGAAAAAAAAAAAA [CACACA_negctrl_site1330] | 8.52 ± 0.47 |
| TTATTATATACAAAATGTACACAGAATAATTTGAAT [XGTACX_site2314] | 8.51 ± 0.31 |
| ATATATATATATATATGTACATAATATATTATATAT [XGTACX_site924] | 10.2 ± 0.33 |
| TTTTTTTTTTTTTTGGTGCAGTTCACATATTATATA [GTGCAC_site9996] | 8.71 ± 0.26 |
| TGTGTAAGCACATACAAACACACAACCTTATTTTTA [CACACA_site2187] | 8.5 ± 0.42 |
| TATATTAACAAAATGGTGCAATAATTTCTATATTGT [GTGCAC_site9430] | 8.65 ± 0.22 |
| TTATTATATTAAAAGAGGACACATTTATTTTTTTTT [XGTACX_site1241] | 8.09 ± 0.53 |
| AAAATATTTAATAGAAGTACACATGTATATATACAT [XGTACX_site8942] | 8.61 ± 0.44 |
| AAAAAAAAAAAAAAAAAAAAAAAAAAAAATAAAAAA [CACACA_negctrl_site59] | 8.84 ± 0.31 |
